The values below come from publication PMC10258805, “Nonpeptidic Oxazole-Based Prolyl Oligopeptidase Ligands with Disease-Modifying Effects on α-Synuclein Mouse Models of Parkinson’s Disease” (Journal of Medicinal Chemistry, 2023).

Data set [1] has as its system AAV2-CBA-αSyn-injected mice. Briefly: Cylinder test in AAV-αSyn PD mouse model. The conditions noted are these: 10 mg/kg/day minipump, vs vehicle-treated AAV-αSyn mice.
The nature of data set [2]: LC-MS detection of HUP-55 in the mouse brain.

One may read the AUC(0-t) as exposure summed from dosing to a finite time, without extrapolation to infinity. Lower therefore signals less exposure. `Cc1nc(CCCc2ccccc2)oc1N1CCC[C@H]1C#N` [HUP-55, (S)-1-(4-Methyl-2-(3-phenylpropyl)oxazol-5-yl)pyrrolidine-2-carbonitrile]: the “use of the ipsilateral forepaw in the cylinder test (in words)” value in data set [1] (after 2 weeks of treatment (6-week time point)) is “significantly decreased their use of the ipsilateral forepaw”. Further, the “ipsilateral paw use in the cylinder test (in words)” value in data set [1] (endpoint 8 weeks post injection) is reported as “statistically significant difference in ipsilateral paw use”. The “presence in the brain (in words)” value in data set [2] (10 mg/kg i.p., 180 min) is “detectable amounts were still present”. The same compound showed an AUC(0-t) at 3 h in data set [2] (C57BL/6JRccHsd, brain, ip, 10 mg/kg) of 1.74 µM·h.
